From PubChem BioAssay AID686970 (National Center for Advancing Translational Sciences (NCATS), 2013)
“And” between values parts separate entries of the source, which are not always exact repeats. Identical values can stand only once. Among all 360,000 compounds or so, about 6,000 (1.7%) were called active. This list was built around the results that the source calls inconclusive (neither active nor inactive); the mix of calls is not that of the screen. The call rests on the fitted dose curve; in most records, active means well fitted cell-killing curve with a large enough effect; inconclusive means small, poorly fitted or top-dose-only effect, or effect the other way; inactive means flat fitted curve, though single readings scatter. Potencies of inconclusive entries are left out as doubtful fits.

Assay: qHTS for induction of synthetic lethality in tumor cells producing 2HG: qHTS for the HT-1080-NT fibrosarcoma cell line;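 further: NT is the 2HG producing partner of a matched IDH1 knockdown line; nearly all actives have a fitted effect of over 55% in size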;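 on activity, negative = less viability: 0% = DMSO-treated cells and -100% = media-only wells without cells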
Conditions: HT-1080-NT fibrosarcoma viability, CellTiter-Glo ATP luminescence, 48 h; activity, negative = less viability: at 46.1 µM (top of the series)
Summary of the method: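 Read-out is CellTiter-Glo luminescence after 10 minutes at room temperature, following 48 hours' compound treatment of HT-1080-NT cells (750 cells/well, RPMI, 5% FBS, 37 degrees C).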
Potency means the concentration at half of the fitted maximal effect; tags describe the fitted curve by direction and shape.

Row | Compound | Potency | activity, negative = less viability
1 | COc1ccc(N=C(C)c2c(O)[nH]c(=O)[nH]c2=O)cc1 | inconclusive [cytotoxic, single point] | –
2 | OC(c1cccc(Cl)c1)(c1cccc(Cl)c1)C1CN2CCC1CC2 (stereo not drawn) | active: 23.1 µM | –
3 | COc1ccc(C(c2nnnn2C2CCCC2)N2CCC3(CC2)C(=O)NCN3c2ccccc2)cc1 (stereo not drawn) | inconclusive [cytotoxic, single point] | –
4 | COc1ccccc1-n1c(/C=C/c2ccccn2)nc2ccccc2c1=O | inconclusive [cytotoxic, single point] | –
5 | COc1ccccc1NP1(=O)OCC(C)([N+](=O)[O-])CO1 (stereo not drawn) | – | inactive: 5.55%
6 | c1ccc(CCc2ccc3n2Cc2cnnn2-c2ccccc2-3)cc1 | inconclusive [cytotoxic, single point] | –
7 | CCOC(=O)c1c(-n2c(C)cc(C=C3C(=O)NC(=S)NC3=O)c2C)sc2c1CCCC2 | inconclusive [cytotoxic, single point] | –
8 | COc1ccc2c(c1)c(CCN)c(C)n2Cc1ccccc1 | inconclusive [cytotoxic, single point] | –
9 | C=CCN1C(=O)NC(=O)/C(=C/C=C/c2ccccc2)C1=O | inconclusive [cytotoxic, single point] | –
10 | Cc1cc(OCC(=O)NCc2ccncc2)c2c3c(c(=O)oc2c1)CCC3 | – | inactive: 20%
11 | O=C(Nc1ccc(Cl)c(C(F)(F)F)c1)NC1CC2CCCC(C1)N2Cc1ccccc1 (stereo not drawn) | active: 18.4 µM | –
12 | CC/C(=C(\c1ccc(O)cc1)c1ccc(OCCN(C)C)cc1)c1ccccc1 | active: 16.4 µM | –
13 | O=C(Nc1c(Cl)cccc1Cl)Oc1cccc2cccnc12 | active: 6.51 µM | –
14 | CCOc1ccc(NC(=O)c2c(C)nn(Cc3ccccc3)c2Cl)cc1 | – | inactive: -11.2%
15 | O=C(CCC(=O)N1C[C@H]2C[C@@H](C1)c1cccc(=O)n1C2)NCc1ccc(F)cc1 | – | inactive: 12%
16 | CC1CN(c2ccc([N+](=O)[O-])c3cccnc23)CC(C)N1 (stereo not drawn) | – | inactive: -28%
17 | CN1C[C@H](C(=O)N[C@]2(C)O[C@@]3(O)[C@@H]4CCCN4C(=O)[C@H](Cc4ccccc4)N3C2=O)CC2c3cccc4[nH]cc(c34)C[C@H]21 (stereo partly drawn) | inconclusive [cytotoxic, partial curve] | –
18 | CCCCC(=O)N/N=C/c1c(O)n(CC)c(=S)n(CC)c1=O | inconclusive [cytotoxic, partial curve] | –
19 | CCn1nc(/C=C/c2ccccc2)nc2c(=O)n(C)c(=O)nc1-2 | active: 4.11 µM | –
20 | CCOc1cccc(=NC2CCCCC2)c2c(C)[nH]c(C)c12 | active: 20.6 µM | –
21 | COC(=O)c1nc(-c2ccc3c(n2)C(=O)C(N)=C(OC)C3=O)c(N)c(-c2ccc(OC)c(OC)c2O)c1C | inconclusive [cytotoxic, single point] | –
22 | C[n+]1c2cc(N)ccc2cc2ccc(N)cc21 | active: 5.17 µM and active: 2.31 µM | –
23 | Cc1ccc(-n2c(C)nc3cc(Cl)ccc3c2=O)nc1 | – | inactive: -1.5%

Row | Compound | Potency | activity, negative = less viability
24 | Cc1ccc(C(=O)Nc2nc3ccccc3[nH]2)cc1 | inconclusive [cytotoxic, partial curve] | –
25 | O=C1NC(=O)N(c2ccccc2)C(=O)/C1=C/c1ccc(Sc2ccccc2)o1 | inconclusive [cytotoxic, single point] | –
26 | CN=C1CN(O)C(c2ccccc2)=c2cc(Cl)ccc2=N1 | inconclusive [rising, partial curve, poor fit] | –
27 | Oc1ccccc1-[n+]1c(-c2ccccc2)cc(-c2ccccc2)cc1-c1ccccc1 | active: 14.6 µM | –
28 | Cc1ncc2n1-c1ccc(Cl)cc1C(c1ccccc1F)=NC2 | inconclusive [cytotoxic, partial curve, poor fit] | –
29 | COc1ccc(C(c2nnnn2C2CCCCC2)N2CCC3(CC2)C(=O)NCN3c2ccccc2)cc1 (stereo not drawn) | inconclusive [cytotoxic, single point] | –
30 | COC(=O)C1=C(c2ccc(OCc3ccccc3)cc2)C[C@@H]2CC[C@H]1N2C(=O)NCc1cccc(OC)c1 | – | inactive: 12.8%
31 | Cn1nc(C(C)(C)C)cc1C(=O)N1CCCCC1c1cc(C(=O)Nc2ccc(F)c(Cl)c2)no1 (stereo not drawn) | inconclusive [cytotoxic, partial curve] | –
32 | Cc1cccc(C2=NCC(=O)N(CC(=O)NCc3ccco3)c3sc4c(c32)CCCC4)c1 | inconclusive [cytotoxic, single point] | –
33 | COC(=O)C1=C(c2ccc(F)cc2OCc2ccccc2)C[C@@H]2CC[C@H]1N2C(=O)NCc1cccc(OC)c1 | – | inactive: -15.8%
34 | C=C1C(=O)[C@@]23C[C@H]4[C@@H]5[C@@]6(C)CCC[C@@]57[C@@H]2[C@@H](O)[C@@H]1C[C@H]3[C@H]7N4C6 | inconclusive [cytotoxic, single point] | –
35 | CCCCNC(=O)c1c(N)n(CCCOC)c2nc3ccccc3nc12 | inconclusive [cytotoxic, single point] | –
36 | O=[N+]([O-])c1ccc(-c2ccc(C=Nc3cccc4ccccc34)o2)cc1 | inconclusive [cytotoxic, single point] | –
37 | N#Cc1ccc2nc(-c3ccc(CN4CCC(n5c(=O)[nH]c6ccccc65)CC4)cc3)c(-c3ccccc3)nc2c1 | inconclusive [cytotoxic, partial curve] | –
38 | CCOc1cc(CNC(C)C(O)c2ccccc2)cc(Cl)c1OCC (stereo not drawn) | inconclusive [cytotoxic, single point] | –
39 | O=c1[nH]c(=S)[nH]c(O)c1CN1CCCCC1 | – | inactive: 1.71%
40 | CCCCCCn1c(=O)c(C(=O)Nc2c(C)n(C)n(-c3ccccc3)c2=O)c(O)c2ccccc21 | – | inconclusive: -15.9% [cytotoxic]
41 | Cc1ccc(-n2c(O)c(/C=C3/C(c4ccccc4)=Nc4ccccc43)c(=O)[nH]c2=O)cc1 | active: 7.31 µM | –
42 | O=C1CN=C(c2cccc(Br)c2)c2cc(Br)ccc2N1 | inconclusive [cytotoxic, single point] | –
43 | O=C(O)COc1ccccc1/C=C1\C(=O)NC(=O)N(CCC2=CCCCC2)C1=O | inconclusive [rising, single point] | –
44 | CCCCCn1c(=O)c(C(=O)Nc2ncccc2C)c(O)c2ccccc21 | active: 18.4 µM | –
45 | CC(=NCc1ccco1)c1c(O)n(C)c(=O)n(C)c1=O | – | inactive: -2.64%
46 | CC(=O)Nc1cc(-c2cccc(C(=O)N(C)C)c2)cn2c(-c3cccc(C(F)(F)F)c3)cnc12 | inconclusive [cytotoxic, single point] | –

Row | Compound | Potency | activity, negative = less viability
47 | CC(=O)OC1CC(OC2C(O)CC(OC3C(O)CC(OC4CCC5(C)C(CCC6C5CCC5(C)C(C7=CC(=O)OC7)CCC65O)C4)OC3C)OC2C)OC(C)C1OC1OC(CO)C(O)C(O)C1O (stereo not drawn) | active: 0.082 µM | –
48 | COc1cccc(C(c2nnnn2C2CCCCC2)N2CCC3(CC2)C(=O)NCN3c2ccccc2)c1OC (stereo not drawn) | inconclusive [cytotoxic, single point] | –
49 | O=c1ccc2c(O)c3ccoc3cc2o1 | – | inactive: -2.18%
50 | O=C(c1cc2c(s1)-c1ccccc1OC2)N1CCC2(CC1)OCCO2 | inconclusive [cytotoxic, single point] | –
51 | CCC(=O)N1N=C(c2c(O)n(CCc3ccccc3)c(=O)[nH]c2=O)CC1c1ccc(OC)c(OC)c1 (stereo not drawn) | – | inconclusive: -21.3% [cytotoxic]
52 | CCOC(=O)[C@]12Cc3cc(C)ccc3[C@H]1N(C)C(=O)c1cc(OC)ccc12 | inconclusive [cytotoxic, single point] | –
53 | Cc1cc(C)c(-n2c(O)c(/C=N/N3CCCCC3c3cccnc3)c(=O)[nH]c2=O)c(C)c1 (stereo not drawn) | – | inactive: 2.98%
54 | c1ccc(C2CN3CCC2CC3)cc1 (stereo not drawn) | – | inactive: -4.69%
55 | COc1cc(CC2(CCc3ccncc3)C(=O)NC(=O)NC2=O)cc(OC)c1OC | – | inactive: 13%
56 | O=C1NC(=O)C(=Cc2ccc(-c3ccccc3[N+](=O)[O-])o2)C(=O)N1 | inconclusive [cytotoxic, single point] | –
57 | COC1/C=C/C=C(\C)Cc2cc(O)c(Cl)c(c2)N(C)C(=O)CC(OC(=O)C(C)C)C2(C)OC2C(C)C2CC1(O)NC(=O)O2 (stereo not drawn) | active: 0.0092 µM | –
58 | O=C(Nc1nc2ccccc2n1CCN1CCCC1)c1ccc(Cl)cc1 | inconclusive [cytotoxic, partial curve] | –
59 | C=CCN1CCc2cccc3c2[C@H]1Cc1ccc(O)c(O)c1-3 | inconclusive [cytotoxic, single point] | –
60 | CCC(=O)N1CCN(c2cc3c(cc2F)c(=O)c(C(=O)O)cn3CC)CC1 | inconclusive [rising, single point] | –
61 | CC(Cc1ccccc1Sc1ccccc1O)N(C)C (stereo not drawn) | inconclusive [cytotoxic, single point] | –
62 | C[C@]12CC[C@H](O)C[C@@H]1CC[C@H]1[C@H]3CCC(=O)[C@@]3(C)CC[C@@H]12 | – | inactive: -0.753%
63 | CC(=O)Nc1cc(-c2ccc(C(=O)NC3CC3)cc2)cn2c(-c3ccc(F)c(Cl)c3)cnc12 | inconclusive [cytotoxic, single point] | –
64 | COc1cc(Cn2c(N)c(C(=O)NCc3ccco3)c3nc4ccccc4nc32)cc(OC)c1OC | active: 12.6 µM | –
65 | Cc1ccc(C)c(NC(=S)NCCc2cnc[nH]2)c1 | – | inactive: 3.09%
66 | OC(CN1CCCCC1)c1c[nH]c2ccccc12 (stereo not drawn) | – | inactive: -8.96%
67 | CC(=O)N(C)C1=Nc2ccc(Cl)cc2C(c2ccccc2)=[N+]([O-])C1 | – | inactive: 11.6%
68 | COc1cc(C2c3cc4c(cc3CC3COC(=O)C32)OCO4)cc(OC)c1O (stereo not drawn) | inconclusive [cytotoxic, full curve, poor fit] | –
